Reference: a compilation of properties of binary mixtures (doi:10.1021/acs.jced.2c00613)
The densities may have been worked out from excess volumes.

Assay: xn = mol fraction of the nth substance listed
Details: 100 kPa

CN1CCN(C)C1=O + O
Details | mass density [kg/m3]
283.15 K, x1 = 0.0501 | 1027
283.15 K, x1 = 0.1 | 1048
283.15 K, x1 = 0.1801 | 1069
283.15 K, x1 = 0.2598 | 1079
283.15 K, x1 = 0.339 | 1082
283.15 K, x1 = 0.4952 | 1080
283.15 K, x1 = 0.7413 | 1073
283.15 K, x1 = 0.8184 | 1070
283.15 K, x1 = 0.899 | 1068
283.15 K, x1 = 0.9488 | 1066
288.15 K, x1 = 0.1801 | 1065
288.15 K, x1 = 0.2598 | 1074
288.15 K, x1 = 0.339 | 1077
288.15 K, x1 = 0.4201 | 1077
288.15 K, x1 = 0.4952 | 1076
288.15 K, x1 = 0.5807 | 1073
288.15 K, x1 = 0.6594 | 1071
288.15 K, x1 = 0.7413 | 1068
288.15 K, x1 = 0.8184 | 1066
288.15 K, x1 = 0.899 | 1063
288.15 K, x1 = 0.9488 | 1062
288.15 K, x1 = 1 | 1060
293.15 K, x1 = 0.0501 | 1023
293.15 K, x1 = 0.1 | 1042
293.15 K, x1 = 0.1801 | 1061
293.15 K, x1 = 0.339 | 1073
293.15 K, x1 = 0.4201 | 1072
293.15 K, x1 = 0.4952 | 1071
293.15 K, x1 = 0.5807 | 1069
293.15 K, x1 = 0.6594 | 1066
293.15 K, x1 = 0.8184 | 1061
293.15 K, x1 = 0.899 | 1059
293.15 K, x1 = 0.9488 | 1057
293.15 K, x1 = 1 | 1056
298.15 K, x1 = 0.0501 | 1021
298.15 K, x1 = 0.1801 | 1057
298.15 K, x1 = 0.2598 | 1065
298.15 K, x1 = 0.339 | 1068
298.15 K, x1 = 0.4201 | 1068
298.15 K, x1 = 0.4952 | 1066
298.15 K, x1 = 0.5807 | 1064
298.15 K, x1 = 0.6594 | 1062
298.15 K, x1 = 0.7413 | 1059
298.15 K, x1 = 0.8184 | 1057
298.15 K, x1 = 0.899 | 1054
298.15 K, x1 = 0.9488 | 1053
303.15 K, x1 = 0.0501 | 1021
303.15 K, x1 = 0.1 | 1039
303.15 K, x1 = 0.1801 | 1057
303.15 K, x1 = 0.2598 | 1065
303.15 K, x1 = 0.339 | 1068
303.15 K, x1 = 0.4201 | 1068
303.15 K, x1 = 0.4952 | 1066
303.15 K, x1 = 0.5807 | 1064
303.15 K, x1 = 0.7413 | 1059
303.15 K, x1 = 0.8184 | 1057
303.15 K, x1 = 0.9488 | 1053
303.15 K, x1 = 1 | 1052
308.15 K, x1 = 0.0501 | 1015
308.15 K, x1 = 0.1 | 1032
308.15 K, x1 = 0.1801 | 1048
308.15 K, x1 = 0.2598 | 1056
308.15 K, x1 = 0.339 | 1058
308.15 K, x1 = 0.4952 | 1057
308.15 K, x1 = 0.6594 | 1052
308.15 K, x1 = 0.7413 | 1050
308.15 K, x1 = 0.8184 | 1048
308.15 K, x1 = 0.899 | 1045
308.15 K, x1 = 0.9488 | 1044
313.15 K, x1 = 0.1 | 1028
313.15 K, x1 = 0.1801 | 1044
313.15 K, x1 = 0.2598 | 1051
313.15 K, x1 = 0.339 | 1054
313.15 K, x1 = 0.4201 | 1054
313.15 K, x1 = 0.4952 | 1052
313.15 K, x1 = 0.5807 | 1050
313.15 K, x1 = 0.7413 | 1045
313.15 K, x1 = 0.8184 | 1043
313.15 K, x1 = 0.899 | 1041
313.15 K, x1 = 1 | 1038
318.15 K, x1 = 0.0501 | 1010
318.15 K, x1 = 0.1 | 1025
318.15 K, x1 = 0.339 | 1049
318.15 K, x1 = 0.4201 | 1049
318.15 K, x1 = 0.4952 | 1047
318.15 K, x1 = 0.5807 | 1045
318.15 K, x1 = 0.6594 | 1043
318.15 K, x1 = 0.8184 | 1039
318.15 K, x1 = 0.899 | 1037
318.15 K, x1 = 0.9488 | 1035
318.15 K, x1 = 1 | 1034
323.15 K, x1 = 0.0501 | 1007
323.15 K, x1 = 0.1 | 1021
323.15 K, x1 = 0.1801 | 1035
323.15 K, x1 = 0.2598 | 1042
323.15 K, x1 = 0.4201 | 1044
323.15 K, x1 = 0.4952 | 1043
323.15 K, x1 = 0.7413 | 1036
323.15 K, x1 = 0.8184 | 1034
323.15 K, x1 = 0.899 | 1032
323.15 K, x1 = 0.9488 | 1031
323.15 K, x1 = 1 | 1029
328.15 K, x1 = 0.0501 | 1004
328.15 K, x1 = 0.1 | 1017
328.15 K, x1 = 0.1801 | 1030
328.15 K, x1 = 0.2598 | 1037
328.15 K, x1 = 0.339 | 1039
328.15 K, x1 = 0.4201 | 1039
328.15 K, x1 = 0.4952 | 1038
328.15 K, x1 = 0.5807 | 1036
328.15 K, x1 = 0.6594 | 1034
328.15 K, x1 = 0.7413 | 1032
328.15 K, x1 = 0.8184 | 1030
328.15 K, x1 = 0.899 | 1028
328.15 K, x1 = 0.9488 | 1026
328.15 K, x1 = 1 | 1025
333.15 K, x1 = 0.0501 | 1000
333.15 K, x1 = 0.1 | 1013
333.15 K, x1 = 0.1801 | 1026
333.15 K, x1 = 0.2598 | 1032
333.15 K, x1 = 0.339 | 1034
333.15 K, x1 = 0.4952 | 1033
333.15 K, x1 = 0.5807 | 1031
333.15 K, x1 = 0.6594 | 1029
333.15 K, x1 = 0.7413 | 1027
333.15 K, x1 = 0.899 | 1023
333.15 K, x1 = 0.9488 | 1022
333.15 K, x1 = 1 | 1021
338.15 K, x1 = 0.0501 | 997
338.15 K, x1 = 0.1 | 1009
338.15 K, x1 = 0.1801 | 1021
338.15 K, x1 = 0.2598 | 1027
338.15 K, x1 = 0.339 | 1029
338.15 K, x1 = 0.4201 | 1029
338.15 K, x1 = 0.4952 | 1028
338.15 K, x1 = 0.5807 | 1026
338.15 K, x1 = 0.6594 | 1025
338.15 K, x1 = 0.7413 | 1023
338.15 K, x1 = 0.8184 | 1021
338.15 K, x1 = 0.899 | 1019
338.15 K, x1 = 0.9488 | 1018
338.15 K, x1 = 1 | 1016
343.15 K, x1 = 0.0501 | 993
343.15 K, x1 = 0.1 | 1005
343.15 K, x1 = 0.1801 | 1017
343.15 K, x1 = 0.2598 | 1022
343.15 K, x1 = 0.339 | 1024
343.15 K, x1 = 0.4201 | 1024
343.15 K, x1 = 0.4952 | 1023
343.15 K, x1 = 0.5807 | 1022
343.15 K, x1 = 0.6594 | 1020
343.15 K, x1 = 0.7413 | 1018
343.15 K, x1 = 0.8184 | 1016
343.15 K, x1 = 0.899 | 1014
343.15 K, x1 = 0.9488 | 1013
343.15 K, x1 = 1 | 1012

O + CN1CCN(C)C1=O
x2 = 0
Details | mass density [kg/m3]
283.15 K | 1000
293.15 K | 998
313.15 K | 992
318.15 K | 990
323.15 K | 988
328.15 K | 986
333.15 K | 983
338.15 K | 981
343.15 K | 978
